The source holds more than one record for some entries. They are shown here; other results are not. The source may hold further records. Some protein pairs were linked at several places, one record each.
Experiments:
Assay in all cases: cross-linking mass spectrometry
Settings in all cases: BS3, purified complex
NUF2 = NUF2 (UniProt Q9BZD4)
SPC25 = SPC25 (UniProt Q9HBM1)
DSN1 = DSN1 (UniProt Q9H410)
KNL1 = KNL1 (UniProt Q8NG31)
MIS12 = MIS12 (UniProt Q9H081)
NSL1 = NSL1 (UniProt Q96IY1)

Chain of NSL1 (Q96IY1 whole entry): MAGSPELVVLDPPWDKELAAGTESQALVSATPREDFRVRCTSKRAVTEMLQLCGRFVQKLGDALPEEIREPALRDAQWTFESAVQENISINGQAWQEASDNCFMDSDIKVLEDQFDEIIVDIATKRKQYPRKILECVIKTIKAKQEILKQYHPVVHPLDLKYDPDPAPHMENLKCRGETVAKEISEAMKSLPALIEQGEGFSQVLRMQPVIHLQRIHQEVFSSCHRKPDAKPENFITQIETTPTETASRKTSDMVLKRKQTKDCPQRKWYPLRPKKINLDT
Chain of NUF2, Q9BZD4 (Q9BZD4 whole entry): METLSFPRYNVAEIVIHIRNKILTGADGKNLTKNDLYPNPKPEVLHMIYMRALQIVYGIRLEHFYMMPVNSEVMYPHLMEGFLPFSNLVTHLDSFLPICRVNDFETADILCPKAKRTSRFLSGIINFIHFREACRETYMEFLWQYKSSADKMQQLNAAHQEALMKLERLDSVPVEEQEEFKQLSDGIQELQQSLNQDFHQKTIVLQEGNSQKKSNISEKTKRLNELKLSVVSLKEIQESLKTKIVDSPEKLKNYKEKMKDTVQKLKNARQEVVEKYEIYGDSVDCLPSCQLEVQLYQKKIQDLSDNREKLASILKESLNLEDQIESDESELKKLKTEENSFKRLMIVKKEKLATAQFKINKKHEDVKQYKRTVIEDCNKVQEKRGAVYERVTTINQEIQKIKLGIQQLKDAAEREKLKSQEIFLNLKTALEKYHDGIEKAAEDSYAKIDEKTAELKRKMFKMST
Chain of NUF2 (Q9BZD4 whole entry): as above
Chain of UniProt Q9HBM1 (Q9HBM1 whole entry): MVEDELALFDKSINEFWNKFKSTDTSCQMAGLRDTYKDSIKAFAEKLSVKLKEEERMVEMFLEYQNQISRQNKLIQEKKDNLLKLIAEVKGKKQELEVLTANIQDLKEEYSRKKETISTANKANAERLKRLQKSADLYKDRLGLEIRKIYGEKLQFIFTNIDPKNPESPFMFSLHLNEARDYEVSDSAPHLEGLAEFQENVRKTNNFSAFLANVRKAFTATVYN
Chain of ZWINT (O95229 whole entry): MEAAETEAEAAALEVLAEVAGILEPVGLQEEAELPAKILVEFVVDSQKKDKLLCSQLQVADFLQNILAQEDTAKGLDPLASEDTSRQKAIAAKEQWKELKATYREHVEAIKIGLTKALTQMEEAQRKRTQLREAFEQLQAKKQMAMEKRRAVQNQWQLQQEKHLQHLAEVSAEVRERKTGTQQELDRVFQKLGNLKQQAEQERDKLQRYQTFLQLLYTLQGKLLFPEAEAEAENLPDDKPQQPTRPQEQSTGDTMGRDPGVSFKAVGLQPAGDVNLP
Chain of UniProt Q9H410 (Q9H410 whole entry): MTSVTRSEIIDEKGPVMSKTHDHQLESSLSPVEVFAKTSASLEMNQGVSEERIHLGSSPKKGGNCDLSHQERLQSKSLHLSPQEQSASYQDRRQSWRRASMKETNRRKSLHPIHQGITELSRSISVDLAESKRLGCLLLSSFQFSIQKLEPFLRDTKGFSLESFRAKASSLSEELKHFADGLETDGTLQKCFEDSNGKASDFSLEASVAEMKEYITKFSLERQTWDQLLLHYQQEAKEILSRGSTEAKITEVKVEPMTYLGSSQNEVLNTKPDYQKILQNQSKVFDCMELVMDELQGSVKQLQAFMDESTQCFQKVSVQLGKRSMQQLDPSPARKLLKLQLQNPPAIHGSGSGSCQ
Chain of NDC80 (O14777 whole entry): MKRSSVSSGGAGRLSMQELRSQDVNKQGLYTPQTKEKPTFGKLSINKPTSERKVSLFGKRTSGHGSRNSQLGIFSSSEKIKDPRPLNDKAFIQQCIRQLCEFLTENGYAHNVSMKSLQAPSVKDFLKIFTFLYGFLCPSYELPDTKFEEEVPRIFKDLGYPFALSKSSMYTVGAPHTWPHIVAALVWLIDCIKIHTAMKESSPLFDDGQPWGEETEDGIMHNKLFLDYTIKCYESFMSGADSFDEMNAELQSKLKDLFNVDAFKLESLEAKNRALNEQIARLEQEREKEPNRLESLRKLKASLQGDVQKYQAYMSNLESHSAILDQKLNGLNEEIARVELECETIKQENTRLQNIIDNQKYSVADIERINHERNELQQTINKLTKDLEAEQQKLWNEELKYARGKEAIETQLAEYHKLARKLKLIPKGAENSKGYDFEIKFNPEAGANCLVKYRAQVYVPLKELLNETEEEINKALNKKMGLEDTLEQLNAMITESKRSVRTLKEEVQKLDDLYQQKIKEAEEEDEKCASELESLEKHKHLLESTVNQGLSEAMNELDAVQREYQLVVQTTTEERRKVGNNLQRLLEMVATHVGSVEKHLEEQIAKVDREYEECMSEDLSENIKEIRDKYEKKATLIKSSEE
Chain of PMF1 (Q6P1K2 whole entry): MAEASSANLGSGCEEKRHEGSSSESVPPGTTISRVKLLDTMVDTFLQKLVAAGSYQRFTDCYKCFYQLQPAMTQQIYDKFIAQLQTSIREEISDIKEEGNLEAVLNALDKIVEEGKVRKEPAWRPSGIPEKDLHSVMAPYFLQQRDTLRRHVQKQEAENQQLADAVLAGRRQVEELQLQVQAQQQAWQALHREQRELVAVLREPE
Chain of MIS12, Q9H081 (Q9H081 whole entry): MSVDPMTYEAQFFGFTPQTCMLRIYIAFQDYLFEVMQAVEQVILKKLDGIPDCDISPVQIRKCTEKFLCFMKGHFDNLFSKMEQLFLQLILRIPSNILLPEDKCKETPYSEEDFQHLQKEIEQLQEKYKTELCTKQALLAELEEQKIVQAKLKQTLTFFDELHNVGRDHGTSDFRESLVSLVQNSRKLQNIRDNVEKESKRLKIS
Chain of MIS12 (Q9H081 whole entry): as above
Chain of SPC24 (Q8NBT2 whole entry): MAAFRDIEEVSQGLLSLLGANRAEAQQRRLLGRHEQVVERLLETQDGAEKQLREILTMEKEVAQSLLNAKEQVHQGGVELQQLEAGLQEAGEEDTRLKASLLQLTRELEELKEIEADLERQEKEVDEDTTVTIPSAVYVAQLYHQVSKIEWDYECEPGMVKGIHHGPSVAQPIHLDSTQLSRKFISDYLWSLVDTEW
Chain of NSL1, Q96IY1 (Q96IY1 whole entry): as the sequence (Q96IY1 whole entry) above
Chain of CENPC (Q03188 whole entry): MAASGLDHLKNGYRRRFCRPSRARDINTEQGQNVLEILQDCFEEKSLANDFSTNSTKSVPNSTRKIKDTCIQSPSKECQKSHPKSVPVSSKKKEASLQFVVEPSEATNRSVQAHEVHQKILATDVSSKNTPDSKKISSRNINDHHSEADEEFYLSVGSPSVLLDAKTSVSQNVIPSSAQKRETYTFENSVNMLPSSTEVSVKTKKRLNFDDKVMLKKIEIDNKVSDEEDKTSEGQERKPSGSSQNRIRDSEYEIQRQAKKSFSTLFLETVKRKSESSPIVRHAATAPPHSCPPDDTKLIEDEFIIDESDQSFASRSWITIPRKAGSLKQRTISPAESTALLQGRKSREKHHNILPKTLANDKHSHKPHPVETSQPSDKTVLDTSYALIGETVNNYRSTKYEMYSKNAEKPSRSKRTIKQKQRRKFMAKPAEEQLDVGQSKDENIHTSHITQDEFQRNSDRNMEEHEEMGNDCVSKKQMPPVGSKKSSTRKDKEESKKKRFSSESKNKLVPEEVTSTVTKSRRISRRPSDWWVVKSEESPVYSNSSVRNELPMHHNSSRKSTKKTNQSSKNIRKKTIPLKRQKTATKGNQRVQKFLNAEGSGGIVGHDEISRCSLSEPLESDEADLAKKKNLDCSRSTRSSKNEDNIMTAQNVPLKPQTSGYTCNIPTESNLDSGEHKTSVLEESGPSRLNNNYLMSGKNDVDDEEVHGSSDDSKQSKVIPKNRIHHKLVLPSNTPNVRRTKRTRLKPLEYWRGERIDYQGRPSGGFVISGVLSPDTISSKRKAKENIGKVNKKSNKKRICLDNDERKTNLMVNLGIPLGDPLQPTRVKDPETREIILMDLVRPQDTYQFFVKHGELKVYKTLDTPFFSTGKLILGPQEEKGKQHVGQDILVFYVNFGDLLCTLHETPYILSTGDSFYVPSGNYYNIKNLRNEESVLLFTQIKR

Substance: CENPC, Q03188
- cross-linked residues (NUF2): K91 - K250 and K128 - K259

Substance: NUF2, Q9BZD4
- cross-linked residues (SPC25): K456 - K21 and K456 - K37 and K456 - K46 and K461 - K46 and K461 - K50 and K461 - K52

Substance: MIS12, Q9H081
- cross-linked residues (DSN1): K103 - K61 and K129 - K248 and K129 - K253 and K197 - K315 and K200 - K315 and K203 - K315

Substance: SPC24, Q8NBT2
- cross-linked residues (NUF2): K50 - K458 and K50 - K461
- cross-linked residues (SPC25): K98 - K84 and K98 - K92 and K98 - K93

Substance: ZWINT, O95229
- cross-linked residues (KNL1): K51 - K2033 and K116 - K2043 and K239 - K2118 and K264 - K2118

Substance: NSL1, Q96IY1
- cross-linked residues (DSN1): K127 - K61 and K132 - K237 and K149 - K61 and K149 - K248 and K231 - K322 and K262 - K322 and K268 - K315 and K268 - K322
- cross-linked residues (MIS12): K127 - K103 and K227 - K203 and K268 - K197

Substance: NDC80, O14777
- cross-linked residues (SPC25): K598 - K21 and K606 - K19 and K606 - K21 and K629 - K41 and K638 - K73

Substance: PMF1, Q6P1K2
- cross-linked residues (DSN1): K116 - K61 and K131 - K217 and K154 - K61 and K154 - K248
- cross-linked residues (MIS12): K63 - K62 and K110 - K103 and K116 - K103 and K154 - K135
- cross-linked residues (NSL1): K116 - K127 and K154 - K149

— publication PMC5101189
